Data: PMC4336329 (PLoS ONE, 2015)
Screen size: about 310,000 compounds; about 2,200 (0.71%) showed an effect of 50% or more. Effects have a minus sign here. This is one part of the list.

What follows are molecules tested against human ether-à-go-go-related gene (hERG) potassium channel (human, UniProt Q12809) (assay: primary screen, population patch clamp on CHO cells stably expressing hERG).
Chain of human ether-à-go-go-related gene (hERG) potassium channel (Q12809 whole entry, looked up): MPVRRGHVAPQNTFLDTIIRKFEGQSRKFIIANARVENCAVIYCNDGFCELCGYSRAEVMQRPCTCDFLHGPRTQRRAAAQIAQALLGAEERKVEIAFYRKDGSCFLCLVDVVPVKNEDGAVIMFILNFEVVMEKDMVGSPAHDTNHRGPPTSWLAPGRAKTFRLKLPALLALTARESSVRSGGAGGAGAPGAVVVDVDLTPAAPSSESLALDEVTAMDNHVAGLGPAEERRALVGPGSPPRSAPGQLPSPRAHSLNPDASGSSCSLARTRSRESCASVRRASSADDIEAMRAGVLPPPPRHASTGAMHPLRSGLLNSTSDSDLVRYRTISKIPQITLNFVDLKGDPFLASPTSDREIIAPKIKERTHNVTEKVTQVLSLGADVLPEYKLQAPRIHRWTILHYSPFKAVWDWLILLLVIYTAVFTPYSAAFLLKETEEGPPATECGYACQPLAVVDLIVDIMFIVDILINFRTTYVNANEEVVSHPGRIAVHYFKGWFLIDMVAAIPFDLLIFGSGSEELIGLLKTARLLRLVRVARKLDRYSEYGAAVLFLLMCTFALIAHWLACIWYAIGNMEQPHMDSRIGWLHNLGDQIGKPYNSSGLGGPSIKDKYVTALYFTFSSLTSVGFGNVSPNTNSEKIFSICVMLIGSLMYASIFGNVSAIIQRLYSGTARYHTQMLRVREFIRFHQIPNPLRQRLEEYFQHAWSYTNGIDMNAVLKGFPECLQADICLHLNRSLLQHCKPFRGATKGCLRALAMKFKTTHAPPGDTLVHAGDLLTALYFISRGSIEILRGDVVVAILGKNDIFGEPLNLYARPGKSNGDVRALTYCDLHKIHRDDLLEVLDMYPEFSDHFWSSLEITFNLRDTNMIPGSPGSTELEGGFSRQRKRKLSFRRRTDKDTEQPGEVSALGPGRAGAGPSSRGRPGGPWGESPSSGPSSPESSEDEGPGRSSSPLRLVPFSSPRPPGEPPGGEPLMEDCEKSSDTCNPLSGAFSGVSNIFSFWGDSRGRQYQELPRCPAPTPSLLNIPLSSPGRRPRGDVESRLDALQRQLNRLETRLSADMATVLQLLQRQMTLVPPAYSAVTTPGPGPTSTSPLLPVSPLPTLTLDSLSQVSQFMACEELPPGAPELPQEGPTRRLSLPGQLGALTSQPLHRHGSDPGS

**Q.** `Cc1cc(C(=O)CCC(=O)N(C)CC(=O)Nc2c(Cl)cccc2Cl)c(C)s1` was tested. Which “hERG current change (%, negative = inhibition) at 1uM” value did it give?
**A.** The value was 2.1%.

**Q.** With `CCn1c(SCC(=O)c2[nH]c(C)c(C(C)=O)c2C)nnc1-c1ccccc1` as the molecule, how does the “hERG current change (%, negative = inhibition) at 1uM” value read?
**A.** Its value is -2.15%.

**Q.** With `COc1cc(CCC(=O)OCC(=O)Nc2ccc(C(N)=O)cc2)cc(OC)c1OC` as the molecule, how does the “hERG current change (%, negative = inhibition) at 1uM” value read?
**A.** Its value is 12.9%.

**Q.** `Cn1c(=S)[nH]c2cccnc21` was tested. Which “hERG current change (%, negative = inhibition) at 1uM” value did it give?
**A.** The value was 11%.

**Q.** How did the “hERG current change (%, negative = inhibition) at 1uM” value turn out when `CC(C)NC(=O)C1(S(=O)(=O)c2ccccc2)CC=CC1` was run?
**A.** The value was 4.45%.

**Q.** With `O=C(Cc1cccc(NC(=O)C2CCCN(C(=O)C3CCCCC3)C2)c1)Nc1cccc(C(=O)N2CCCC2)c1` (stereo not drawn) as the molecule, how does the “hERG current change (%, negative = inhibition) at 1uM” value read?
**A.** The value was 0.382%.

**Q.** How did the “hERG current change (%, negative = inhibition) at 1uM” value turn out when `CC(OC(=O)/C=C/c1ccc2ccccc2n1)C(=O)N(C)c1ccccc1` (stereo not drawn) was run?
**A.** Its value is 13.7%.

**Q.** How did the “hERG current change (%, negative = inhibition) at 1uM” value turn out when `Cc1c(Cl)c([N+](=O)[O-])nn1CC(=O)NCC1CCCO1` (stereo not drawn) was run?
**A.** Its value is 10.3%.

**Q.** `CCn1c(CCNC(=O)c2ccc(OC)c(OC)c2)nc2ccccc21` was tested. Which “hERG current change (%, negative = inhibition) at 1uM” value did it give?
**A.** Its value is -9.78%.

**Q.** Which “hERG current change (%, negative = inhibition) at 1uM” value does the source give for `CSc1nn(CCc2ccncc2)c(=S)s1` here?
**A.** The value was 9.15%.

**Q.** Which “hERG current change (%, negative = inhibition) at 1uM” value does the source give for `Cc1ccc2c(c1)N(C(=O)CCC(=O)NCc1ccccc1)CC(C)O2` (stereo not drawn) here?
**A.** The value was 4.18%.

**Q.** How did the “hERG current change (%, negative = inhibition) at 1uM” value turn out when `CCOC(=O)c1cnc(N)nc1C(F)(F)F` was run?
**A.** The value was -2.92%.

**Q.** `COc1ccccc1-n1c(-c2ccccc2)n[nH]c1=S` was tested. Which “hERG current change (%, negative = inhibition) at 1uM” value did it give?
**A.** The value was 12.2%.

**Q.** Which “hERG current change (%, negative = inhibition) at 1uM” value does the source give for `Br.CCCCCCC1CC(CSC(=N)N)OC1=O` (stereo not drawn) here?
**A.** The value was -14.2%.

**Q.** Which “hERG current change (%, negative = inhibition) at 1uM” value does the source give for `CCN(C1CCCCC1)S(=O)(=O)CCNC(=O)c1ccccc1` here?
**A.** The value was 2.25%.

**Q.** With `O=C(c1ccc(-c2ccccc2)cc1)N1CCN(c2ccccn2)CC1` as the molecule, how does the “hERG current change (%, negative = inhibition) at 1uM” value read?
**A.** The value was 3.81%.

**Q.** For `CC(=O)c1ccc(Nc2cc(C)nc3ccc(C)cc23)cc1`, which “hERG current change (%, negative = inhibition) at 1uM” value is on record?
**A.** The value was -53.2%.

**Q.** How did the “hERG current change (%, negative = inhibition) at 1uM” value turn out when `CCOc1ccc(NC(=O)CN(C)C(=O)c2ccc(=O)[nH]c2)cc1OCC` was run?
**A.** Its value is 8.05%.

**Q.** With `O=C(/C=C/c1ccccc1)NC(=S)NNC(=O)Cc1cccs1` as the molecule, how does the “hERG current change (%, negative = inhibition) at 1uM” value read?
**A.** The value was 14.5%.

**Q.** For `COC(=O)c1ccc[n+](CC(=O)Nc2ccc(OC(F)F)cc2)c1.[Cl-]`, which “hERG current change (%, negative = inhibition) at 1uM” value is on record?
**A.** Its value is 6.13%.

**Q.** For `CCCCN1C(Nc2ccccc2)=NC[C@@H]1Cc1ccccc1`, which “hERG current change (%, negative = inhibition) at 1uM” value is on record?
**A.** Its value is -44.2%.

**Q.** For `O=C(Nc1cccc(Cl)c1)c1ccc(OC(=S)N2CCOCC2)cc1`, which “hERG current change (%, negative = inhibition) at 1uM” value is on record?
**A.** Its value is 23.2%.

**Q.** For `COC(=O)[C@H](CC(C)C)NC(=O)N1CCCCC1C` (stereo partly drawn), which “hERG current change (%, negative = inhibition) at 1uM” value is on record?
**A.** The value was 13.1%.

**Q.** How did the “hERG current change (%, negative = inhibition) at 1uM” value turn out when `CCCn1c2ccccc2c2cnn(CC(=O)NCCCOC)c(=O)c21` was run?
**A.** The value was 13.7%.

**Q.** Which “hERG current change (%, negative = inhibition) at 1uM” value does the source give for `Cc1csc(NC(=O)C2CCCCC2C(=O)O)n1` (stereo not drawn) here?
**A.** Its value is 13.3%.

**Q.** How did the “hERG current change (%, negative = inhibition) at 1uM” value turn out when `COc1ccccc1C(=O)Nc1nc(-c2ccc(S(=O)(=O)N3CCOCC3)cc2)cs1` was run?
**A.** The value was 8.35%.

**Q.** With `NC(=O)CSc1nccn1Cc1ccc(Cl)cc1` as the molecule, how does the “hERG current change (%, negative = inhibition) at 1uM” value read?
**A.** The value was 1.89%.

**Q.** `Cc1nnc(NC(=O)CSc2nc3ccccc3[nH]2)s1` was tested. Which “hERG current change (%, negative = inhibition) at 1uM” value did it give?
**A.** Its value is 26.9%.

**Q.** For `CC(=O)OC1CCC2(C)C(COc3ccc4ccc(=O)oc4c3)C(C)(O)CCC2C1(C)C` (stereo not drawn), which “hERG current change (%, negative = inhibition) at 1uM” value is on record?
**A.** Its value is 3.1%.

**Q.** For `OC1(c2ccc(F)cc2)CCN(Cc2cccnc2)CC1`, which “hERG current change (%, negative = inhibition) at 1uM” value is on record?
**A.** Its value is 11%.

**Q.** For `CC(C)(C)OC(=O)CN1C(=O)NC(Cc2c[nH]c3ccccc23)C1=O` (stereo not drawn), which “hERG current change (%, negative = inhibition) at 1uM” value is on record?
**A.** Its value is 8.66%.

**Q.** With `CCC(CC)C(=O)NCc1ccc2c(c1)cc(C)n2C` as the molecule, how does the “hERG current change (%, negative = inhibition) at 1uM” value read?
**A.** Its value is 6.39%.

**Q.** With `CC(CCc1ccccc1)NCC(O)c1cccc([N+](=O)[O-])c1.Cl` (stereo not drawn) as the molecule, how does the “hERG current change (%, negative = inhibition) at 1uM” value read?
**A.** The value was -8.42%.

**Q.** `CCc1cccc(CC)c1NC(=O)c1cccc(S(=O)(=O)N2CCN(C)CC2)c1` was tested. Which “hERG current change (%, negative = inhibition) at 1uM” value did it give?
**A.** The value was 10.2%.

**Q.** Which “hERG current change (%, negative = inhibition) at 1uM” value does the source give for `C/C(=N\N)c1c(-c2ccccc2)c2cc(C)ccc2[nH]c1=O` here?
**A.** Its value is 2.39%.

**Q.** How did the “hERG current change (%, negative = inhibition) at 1uM” value turn out when `CC1=C(C(=O)OC2CCCC(C)C2)C(c2ccccc2)NC(=O)N1` (stereo not drawn) was run?
**A.** Its value is 1.22%.

**Q.** For `COc1cc(OC)cc(OC(=O)C2CCN(C(=O)c3ccc(Cl)cc3)CC2)c1`, which “hERG current change (%, negative = inhibition) at 1uM” value is on record?
**A.** Its value is 13.5%.

**Q.** With `CN=C1SC(CC(=O)Nc2ccccc2F)C(=O)N1/N=C/c1ccc(O)c(OC)c1` (stereo not drawn) as the molecule, how does the “hERG current change (%, negative = inhibition) at 1uM” value read?
**A.** Its value is 1.77%.

**Q.** For `Nc1c(C(=O)NCc2ccco2)nnn1-c1ccccc1`, which “hERG current change (%, negative = inhibition) at 1uM” value is on record?
**A.** Its value is 14.1%.

**Q.** How did the “hERG current change (%, negative = inhibition) at 1uM” value turn out when `Cc1cc(S(=O)(=O)N2CCOCC2)ccc1OCC(=O)NCCN1CCOCC1` was run?
**A.** Its value is 9.5%.

**Q.** For `CCc1ncc(CN2CCC(C(=O)Nc3ccc(-n4nc(C)cc4C)cc3)CC2)cn1`, which “hERG current change (%, negative = inhibition) at 1uM” value is on record?
**A.** Its value is 3.54%.

**Q.** `N#C/C(=C(/O)c1ccc(F)cc1)c1nc2ccccc2s1` was tested. Which “hERG current change (%, negative = inhibition) at 1uM” value did it give?
**A.** Its value is 15.3%.

**Q.** For `CCN(c1cccc(C)c1)S(=O)(=O)c1cc(CN2C(=O)c3cccnc3C2=O)ccc1OC`, which “hERG current change (%, negative = inhibition) at 1uM” value is on record?
**A.** The value was 10.4%.

**Q.** `CC(c1cc2ccccc2s1)N(O)C(N)=O` (stereo not drawn) was tested. Which “hERG current change (%, negative = inhibition) at 1uM” value did it give?
**A.** Its value is 2.59%.

**Q.** How did the “hERG current change (%, negative = inhibition) at 1uM” value turn out when `C=CCOc1ccc(/C(CC)=N/O)c(OC)c1` was run?
**A.** The value was -0.148%.
